According to the supplement of paper PMC3334620:
In all, about 33,000 sequences were measured (“E-score (-0.5 to 0.5)”: median about -0.035, highest 2% from about 0.35 on). The list shows a part of the results.

Target: T1, Pdr3 (UniProt P33200)
T1 sequence: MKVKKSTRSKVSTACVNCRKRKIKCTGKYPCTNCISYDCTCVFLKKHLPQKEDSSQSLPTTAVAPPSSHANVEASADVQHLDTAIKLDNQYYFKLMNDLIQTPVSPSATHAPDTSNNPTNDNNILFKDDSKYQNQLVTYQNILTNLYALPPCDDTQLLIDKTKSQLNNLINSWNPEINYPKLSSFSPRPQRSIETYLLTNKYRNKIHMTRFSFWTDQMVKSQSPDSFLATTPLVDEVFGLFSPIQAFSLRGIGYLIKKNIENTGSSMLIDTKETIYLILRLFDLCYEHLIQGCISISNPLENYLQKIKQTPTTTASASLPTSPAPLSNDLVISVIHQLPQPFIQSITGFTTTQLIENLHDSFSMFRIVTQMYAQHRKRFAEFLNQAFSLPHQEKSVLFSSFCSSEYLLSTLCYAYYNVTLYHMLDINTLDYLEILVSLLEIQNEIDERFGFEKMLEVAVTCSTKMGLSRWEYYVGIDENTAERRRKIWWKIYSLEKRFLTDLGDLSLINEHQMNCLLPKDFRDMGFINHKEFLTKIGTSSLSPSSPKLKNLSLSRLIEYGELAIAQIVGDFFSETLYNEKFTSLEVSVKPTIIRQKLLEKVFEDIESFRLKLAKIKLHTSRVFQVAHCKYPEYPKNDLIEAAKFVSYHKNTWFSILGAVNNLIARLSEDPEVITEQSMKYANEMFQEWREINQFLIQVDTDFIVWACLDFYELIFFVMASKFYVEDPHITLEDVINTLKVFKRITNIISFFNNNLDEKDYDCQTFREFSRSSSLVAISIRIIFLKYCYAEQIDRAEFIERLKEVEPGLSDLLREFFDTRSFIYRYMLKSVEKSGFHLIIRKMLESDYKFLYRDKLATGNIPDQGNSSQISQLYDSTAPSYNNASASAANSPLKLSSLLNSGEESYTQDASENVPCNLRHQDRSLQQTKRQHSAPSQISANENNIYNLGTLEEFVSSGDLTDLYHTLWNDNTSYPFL
Assay: PBM E-score (8-mer binding enrichment) (E-score (-0.5 to 0.5)); higher = stronger / more preferred TF binding; most listed sequences are background and not binding sites
Settings: protein concentration: 200 nM; construct: GST-full length
Summary of the method: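 The E-score, a modified Wilcoxon-Mann-Whitney statistic, was computed by the Universal PBM Analysis Suite for every ungapped eight-base word pooled with its reverse complement. Scans behind it were normalised with masliner after bound GST-tagged yeast transcription factors were detected with fluorescent anti-GST. The proteins, at about 100-200 nM, had been applied to universal all-10-mer Agilent arrays made double-stranded by primer extension.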

Sequence | PBM E-score
TGAGTGAA | -0.0335
GTAGGGCA | -0.154
ATCCCTTG | -0.136
CAAGGAAG | -0.0209
GAGATACC | 0.158
ATCAGAAG | 0.00355
AGGCAGCG | -0.144
CACCTCAC | -0.026
CTTGTATC | -0.166
GCCGGACC | 0.303
ACCAATCT | -0.0122
CTGATGAC | -0.127
GCGGATGA | 0.303
ATACAATA | 0.142
ACCCTCGC | -0.051
CATGAGAG | -0.0845
AGGCGTTG | -0.0952
ACACCTCC | -0.0329
GTGGATCA | -0.178
AAAAAACG | -0.0282
AACCTCCC | 0.0617
CGGTGATA | 0.0933
GGAATTTA | 0.212
AAGCAACT | -0.109
CTATCGCC | -0.185

Sequence | PBM E-score
CAGATTCC | 0.242
CGCTAATC | 0.0544
CCGTTAGC | -0.0333
CGTTATAC | -0.177
CCTCGGCC | 0.251
ACACCCAC | -0.01
CAAATAAG | -0.0749
AGTAACTA | 0.0843
ATTAGATG | 0.0805
CATTCAAC | -0.03
TAAGGGAA | -0.127
CATCCGGC | 0.295
TTAAAGAA | -0.061
ATACTCTA | -0.144
GTCGCCGA | 0.131
AACCCGTC | 0.0509
GCAGTAAC | -0.243
ACTTCAAC | 0.0423
AAAAACTA | 0.0302
GAGACACA | -0.0286
CTTAGTCC | -0.0741
TCACTAGA | 0.0476
CGTGTGGA | -0.0657
TACCGCTA | -0.17
TAGCCGAA | 0.0812

Sequence | PBM E-score
AGAACCGC | 0.0223
AGACACTC | -0.198
CAGTAATG | -0.162
ACCGCCTC | -0.0991
AAGGCAAC | 0.114
ACGGGACA | 0.311
CAGATTTA | 0.0318
AAGGTCGC | 0.176
ACAGATCT | -0.113
CTATTCAG | -0.214
AGAGGGGC | -0.138
AATCACCC | 0.0668
GCTGTAAC | -0.00561
AAAGATAC | 0.0747
GTGCATAA | -0.0206
GTGGTCCA | 0.0417
ACCAAACT | -0.00703
ACCATGAA | 0.12
AGTTGGCC | -0.151
GCTTCCAC | -0.139
ATGCCAGA | -0.0896
CGGGCGCC | 0.197
AATTGAGG | 0.00764
AAGATCCT | -0.0701
GCCCAAGA | -0.176

Sequence | PBM E-score
ATATATCA | 0.00415
GATCTCCC | 0.0107
ACAACAAT | -0.119
ATGCAGTC | -0.256
CACCCGAG | 0.204
ACTTGGCT | -0.127
AGCTATTC | 0.0679
GGCGCTCA | 0.0784
CTAACAGA | -0.028
AGCGACTC | -0.145
GTGGTGTA | -0.221
GCTAGTCA | -0.246
GGTGAAAA | 0.2
CGCAGAGA | -0.112
AATAAATA | 0.273
AGCTCCTG | -0.187
AATAAAGG | -0.266
TGAGTTAA | -0.0516
CCCAAGAG | -0.214
AGGGCACC | -0.172
AGAAGCCG | 0.213
CATCAAGA | -0.0896
AACGTAAC | -0.0882
AAAAGTCT | -0.253
TGAATACA | 0.0291

Sequence | PBM E-score
CAAAATAG | -0.109
AGCGACAG | -0.03
AGCATGGA | -0.2
GTACAATA | -0.153
TACGGCGA | 0.0344
AGAGCATC | -0.0714
GGCGGCGA | 0.243
CCGAGTAC | 0.256
CCTATAAC | -0.288
AAGTCGTA | -0.323
ATATATCG | 0.124
ACTCCCTG | -0.15
GGGGGCAA | -0.234
CAGACCTC | -0.0492
CAGGGCAA | 0.0442
AGTCAACA | -0.103
AGGGTGAC | 0.0577
GACCTTAA | -0.249
CTATATCC | 0.107
ATATCCTC | 0.0851
CGACATTC | 0.039
AGAGTACT | -0.173
CAACTTGG | -0.0197
AGGGTGAG | -0.0933
CCATGACA | -0.101

Sequence | PBM E-score
CTGCTGGA | -0.176
ACCTATTA | -0.0773
ATAAACTC | 0.225
CAGTATCG | 0.116
ACAAGCCA | -0.107
ATTCATAA | -0.123
CCGCACAG | 0.0967
CGGCAAGC | 0.153
CCCTGGCG | -0.101
CTCGTGCC | -0.0174
AGGCAATG | -0.115
CCCCCTGC | -0.16
AGTCCTGC | -0.0695
CTGAGCAC | -0.169
GCAGACGC | -0.0419
AAGGGGTC | -0.189
GAGGTACA | -0.133
GCCTCCCC | -0.0413
CTCGTCGA | -0.0424
AACTGAAT | -0.181
CTATTCGC | -0.0138
GTAATCAA | 0.0934
AACTATCT | 0.00109
CAAGCAAC | -0.0453
ACCGAAGA | 0.112

Sequence | PBM E-score
CTCGGCAA | 0.194
AATTCTAG | -0.188
ATTGGCTA | -0.117
GTAACGTA | -0.165
CTTTATCC | 0.0779
AGTTTAGA | 0.00108
AAACACGT | -0.207
CCTATAAG | -0.115
AGGTGGAA | 0.0633
ACAAGTCG | -0.222
ACAGATCC | 0.265
AATCAATT | 0.2
AGGATACC | 0.043
AGGCACTA | -0.111
ATACGTCC | 0.051
AGCTAGCG | -0.0532
CATTTCTA | -0.0363
AGAGTTGA | -0.00429
AGATTTCG | 0.155
TGTACCAA | -0.125
ACCGGCCG | 0.35
GAACCCAC | 0.159
